Measured values reported in PubChem BioAssay AID651820 (National Center for Advancing Translational Sciences (NCATS), 2012).
Out of some 340,000 compounds screened, about 12,000 (3.5%) were called active. Inconclusive results, whose numbers are uncertain, are shown with a selection of clear calls. Calls come from the whole dose curve; as a rule, active = well fitted inhibition curve with a large enough effect; inconclusive = small, poorly fitted or top-dose-only effect, or another doubt; inactive = no such curve, though single readings can be large or run the other way. No potency is given beside an inconclusive call; the fits are too rough.
% is set by controls: 0 for no effect and ±100 for the full control effect; potency is the fitted concentration of half-maximal effect; tags give direction and shape of the fitted curve.

Assay: qHTS Assay for Inhibitors of Hepatitis C Virus (HCV)
Settings: Huh7.5.1 HCVcc-Cre (HCVcc is cell-culture hepatitis C virus) infection, luciferase reporter, 44 h; activity change, negative = inhibition: at 41.8 µM (top of the series) unless noted
Procedure, shortened: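 HCVcc-Cre virus at an moi near 0.5 was added right after compound to cells cultured 4 h from seeding (1,000 cells/well). Luciferase activity was determined 44 h later, 15 min after substrate addition at RT.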
With `S=c1[nH]ncn1/N=C/c1ccc(N2CCOCC2)cc1` the Potency was “inactive”. For `Cc1ccc(S(=O)(=O)N2CCN(CCOc3cccc(C)c3)CC2)cc1`, the Potency was inconclusive [inhibitor, single point]. For `CCc1cc2c(=O)c(-c3ccc(F)cc3)c(C)oc2cc1OCC(=O)O`, the Potency was “inactive”. With `COc1ccc(OC)c(NC(=O)c2cc(-c3cc(C)cc(C)c3O)n[nH]2)c1` the Potency was active: 3.98 µM. With `CCC(c1ccccc1)c1nc(-c2ccccn2)no1` (stereo unspecified) the Potency was “inactive”. In the case of `Cc1ccc(-c2nnc(N3CCN(C(=O)COc4ccccc4)CC3)c3ccccc23)cc1`, the Potency is reported as active: 12.6 µM. With `O=C(CCN1C(=O)C2CC=C(Cl)CC2C1=O)Nc1ccccc1O` (stereo unspecified) the Potency was inconclusive [inhibitor, partial curve]. For `COC(=O)c1ccccc1NC(=O)c1ccc2nccnc2c1`, the Potency was inconclusive [inhibitor, single point]. In the case of `NC(=O)Cc1nc2scc(-c3ccc(Cl)cc3)c2c(=O)[nH]1`, the Potency is reported as “inactive”. In the case of `COc1ccc(C(=O)NC(=S)NCc2cccnc2)cc1Cl`, the Potency is reported as inconclusive [inhibitor, partial curve]. For `Cc1ccccc1Sc1ncnc2onc(C)c12`, the Potency was inconclusive [inhibitor, single point]. For `Cc1ccccc1NC(=O)C1CCCN(S(=O)(=O)c2ccc3c(c2)C(C)(C)C(=O)N3C)C1` (stereo unspecified), the Potency was “inactive”. For `COCCn1nnnc1C(c1cc2cc(C)ccc2[nH]c1=O)N1CCCCCC1` (stereo unspecified), the Potency was “inactive”. With `O=c1[nH]c(=O)n(-c2ccc(F)cc2)c2c1C(C(F)(F)F)(C(F)(F)F)N=C(c1ccc(F)cc1)N2` the Potency was active: 12.6 µM. For `COc1ccc(C(=O)CSc2ccc(-c3ccc(C)cc3)nn2)cc1`, the Potency was inconclusive [inhibitor, single point]. In the case of `CCCOc1ccc(CNC(=S)NCc2ccc(OC(C)C)cc2)cc1`, the Potency is reported as inconclusive [inhibitor, single point]. In the case of `CCOc1nc(NC2CCCCC2)nc(NC(C)(C)C)n1`, the Potency is reported as inconclusive [inhibitor, partial curve, poor fit]. In the case of `O=C(NCCN1CCN(C(=O)c2cccc(OC(F)F)c2)CC1)c1cccc(OC(F)F)c1`, the Potency is reported as inconclusive [inhibitor, single point]. For `c1ccc2cc(CSCc3nc4ccccc4[nH]3)ccc2c1`, the Potency was inconclusive [inhibitor, single point]. In the case of `Cc1cc(C)c(NC(=O)c2ccc3nccnc3c2)c(C)c1`, the Potency is reported as “inactive”. In the case of `COc1ccc(OC)c(Nc2nc(-c3cccs3)cs2)c1`, the Potency is reported as active: 14.1 µM. With `Cc1cc(C(=O)CN2C(=O)NC3(CCCc4ccccc43)C2=O)c(C)n1Cc1ccco1` (stereo unspecified) the Potency was inconclusive [inhibitor, single point]. In the case of `COc1ccc(NC(=O)CCCOc2ccc(Cl)c(C)c2)cc1S(=O)(=O)N1CCOCC1`, the Potency is reported as inconclusive [inhibitor, partial curve]. For `O=C(Nc1ccc(S(=O)(=O)N2CCOCC2)cc1)C1COc2ccccc2O1` (stereo unspecified), the Potency was “inactive”. With `COc1ccccc1/C=N/NC(=O)c1ccc(Br)cc1` the Potency was “inactive”. For `O=C(NCC(c1ccco1)N1CCN(c2ccccc2F)CC1)C(=O)NC1CCCC1` (stereo unspecified), the Potency was inconclusive [inhibitor, single point]. In the case of `C=CCn1c(NCc2ccc(OC)cc2O)nc2ccccc21`, the Potency is reported as inconclusive [inhibitor, partial curve, poor fit]. In the case of `COc1ccc2nc3cc([N+](=O)[O-])ccc3c(NNc3ccc([N+](=O)[O-])cc3)c2c1`, the Potency is reported as “inactive”. With `Cc1ccc(-c2csc3ncnc(N4CCN(C(=O)c5ccco5)CC4)c23)cc1` the Potency was inconclusive [inhibitor, full curve, poor fit]. In the case of `CC(Oc1ccc(Cl)cc1)C(=O)Nc1ccccc1N1CCOCC1` (stereo unspecified), the Potency is reported as inconclusive [inhibitor, single point]. For `Cc1ccc(-c2csc3ncnc(-n4cnc5ccccc54)c23)cc1`, the Potency was inconclusive [inhibitor, single point]. For `CCN(C(=O)CSc1ncnc2sc(C)c(C)c12)C1CCS(=O)(=O)C1` (stereo unspecified), the Potency was inconclusive [inhibitor, single point]. With `O=C(c1cccc([N+](=O)[O-])c1)C12CN3CN(CN(C3)C1)C2` the Potency was “inactive”. In the case of `CCN1/C(=C/C(C)=C/c2sc3ccccc3[n+]2CC)Sc2ccccc21`, the Potency is reported as active: 1 µM. In the case of `CCNC(=O)NC(=O)c1csc([N+](=O)[O-])c1`, the Potency is reported as inconclusive [inhibitor, single point]. With `O=[N+]([O-])c1ccc(CSc2ccc(S(=O)(=O)N3CCCCCC3)cn2)cc1` the Potency was inconclusive [inhibitor, single point]. With `c1ccc2c(c1)c1cccc3ccc4cccc2c4c31` the Potency was inconclusive [inhibitor, partial curve]. For `CC(=O)Nc1cccc(C(=O)OCC(=O)NC(=O)c2ccccc2)c1`, the Potency was inconclusive [inhibitor, single point]. For `NC1CCN(c2nc3c(cc2F)c(=O)c(C(=O)O)cn3-c2ccc(F)cc2F)C1` (stereo unspecified), the Potency was “inactive”. In the case of `CCOC(=O)c1c(C)n(C)c2ccc(O)c(CN3CCC(C)CC3)c12`, the Potency is reported as inconclusive [inhibitor, partial curve]. For `CC1CCCC(C)N1C(=O)CSc1nnc(-c2c[nH]c3ccccc23)o1` (stereo unspecified), the Potency was inconclusive [inhibitor, partial curve]. In the case of `COc1cc(S(=O)(=O)NCc2ccccn2)c(OC)cc1Cl`, the Potency is reported as “inactive”. With `COC(=O)n1c(=O)oc2cc(S(=O)(=O)N3CCCCC3)ccc21` the Potency was “inactive”. In the case of `CC(=O)N1CCN(c2ccc(NC(=O)c3cccc(Cl)c3Cl)cc2)CC1`, the Potency is reported as “inactive”. For `COc1cc(OC)cc(C(=O)NNC(=O)Cc2cccs2)c1`, the Potency was “inactive”. With `Cc1ccc(CNc2ccc3c(c2)OCO3)cc1` the Potency was active: 10 µM. In the case of `N#Cc1ccccc1OCC(=O)NCC1(N2CCCCC2)CCCCC1`, the Potency is reported as “inactive”. For `Cc1ccc(C(=O)NNC(=O)c2ccc(Br)s2)cc1S(=O)(=O)N1CCOCC1`, the Potency was “inactive”. For `CCN(CC)S(=O)(=O)c1ccc(N2CCN(c3cccc(OC)c3)CC2)c([N+](=O)[O-])c1`, the Potency was inconclusive [inhibitor, single point]. With `O=C(CCn1cccc1)NCc1ccc2c(c1)OCO2` the Potency was “inactive”. In the case of `Cc1cc(C)cc(NC(=O)c2cc3c(=O)n4ccccc4nc3s2)c1`, the Potency is reported as inconclusive [inhibitor, full curve, poor fit]. For `O=C(Cn1cc(C(=O)C(F)(F)F)c2ccccc21)Nc1ccccc1F`, the Potency was “inactive”. In the case of `Cc1cccc2cc(C#N)c(NCCNS(=O)(=O)c3ccc4c(c3)OCCO4)nc12`, the Potency is reported as inconclusive [inhibitor, partial curve]. In the case of `Cc1cccc(Nc2ccc3nonc3c2[N+](=O)[O-])c1C`, the Potency is reported as inconclusive [inhibitor, single point]. In the case of `O=C(NCCSc1c(-c2ccccc2)[nH]c2ccccc12)c1cc2ccccc2oc1=O`, the activity change, negative = inhibition is reported as inactive: 1.86% [at 8.37 µM]. In the case of `CC(C)N(Cc1nccn1C)C(=O)c1ccc2oc(Cc3ccccc3)nc2c1`, the Potency is reported as “inactive”. In the case of `COC(=O)c1c(C)nc2nonc2c1N`, the Potency is reported as “inactive”. With `Cc1nn(C)c(C(=O)N/N=C/c2ccc(Br)cc2)c1Cl` the Potency was “inactive”. With `Cc1ccc(Nc2c(-c3ccccc3O)nc3cnccn23)cc1` the Potency was “inactive”. In the case of `CC(C)(CC(=O)N1CCN(c2ccc(Cl)cc2)CC1)CC1=NS(=O)(=O)c2ccccc2N1`, the Potency is reported as inconclusive [inhibitor, single point]. For `COc1ccc([C@H]2CC(=O)C=C(c3cccc(C(C)C)c3)C2)cc1OC`, the Potency was inconclusive [inhibitor, full curve]. For `Cc1cc(OCCn2nc(C(=O)O)c3ccccc3c2=O)ccc1C(C)C`, the Potency was inconclusive [inhibitor, partial curve]. With `CCC1CN(C(=O)N2CCC(C(=O)Nc3ccccc3F)CC2)c2ccccc2O1` (stereo unspecified) the Potency was inconclusive [inhibitor, full curve, poor fit]. With `O=C1c2cccc3cccc(c23)C(=O)N1CC1CCN(S(=O)(=O)c2ccc(F)cc2)CC1` the Potency was inconclusive [inhibitor, single point]. In the case of `Cc1cccc(CCNS(=O)(=O)c2ccc(S(=O)(=O)NC3CCCC3)cc2)c1`, the Potency is reported as inconclusive [inhibitor, single point]. For `C=CCn1c(C)cc(-c2csc(NCC)n2)c1C`, the Potency was active: 10 µM. In the case of `CC(C)(C)C(=O)NC(=S)Nc1cccc(C(=O)O)c1`, the Potency is reported as “inactive”. In the case of `Cc1cc(C2=NNC(=NC3CC3)SC2)c(C)n1-c1ccccc1`, the Potency is reported as inconclusive [inhibitor, partial curve]. In the case of `N#Cc1ccc(/C=N/NC(=O)c2cc(-c3cccs3)nc3ccccc23)cc1`, the Potency is reported as “inactive”. In the case of `CN(C)/C=N/c1nc(-c2ccc3c(c2)OCO3)cs1`, the activity change, negative = inhibition is reported as inconclusive: -72.7% [inhibitor]. With `COc1ccc(NC(=O)CN2C(=O)COc3ccc(S(=O)(=O)N4CCCCCC4)cc32)cc1` the Potency was inconclusive [inhibitor, partial curve]. For `Cc1c(Cl)cccc1NC(=S)NCCCN(C)C`, the Potency was “inactive”. In the case of `Cc1cccc2c(N=O)c(O)n(CCc3ccccc3)c12`, the Potency is reported as “inactive”. In the case of `COc1cc(NC(=O)CCCl)cc(-n2cnnn2)c1`, the Potency is reported as inconclusive [inhibitor, partial curve]. For `Cc1ccc(S(=O)(=O)N(C)C)cc1NC(=S)NC(=O)C12CC3CC(CC(C3)C1)C2`, the Potency was active: 15.8 µM. In the case of `O=[N+]([O-])c1ccc(N2CCCC2)cc1N1CCCC1`, the Potency is reported as active: 2.51 µM.
